# According to PubChem BioAssay (NCATS):
# The other results are listed elsewhere or left out. The main result of the screen is listed elsewhere. These columns were measured beside it and carry no call. Most of these compounds were active or inconclusive in the main read-out, so they are no random draw. Potencies come from curve fits of mixed quality, noted in brackets.
# Molecular target: Histamine N-methyltransferase (Homo sapiens) (UniProt P50135)
# Experiment: Confirmatory Screen for Target Class Profiling of Small Molecule Inhibitors of Methyltransferases (AID 1745852);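 also: inhibitor potency for blocking SAH production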
# Conditions: MTase-Glo luminescence, SAH detection, recombinant enzyme; measured here: HNMT inhibition potency
# Tags tell the direction and shape of the fitted curve.
# Chain of UniProt P50135 (P50135 whole entry, looked up): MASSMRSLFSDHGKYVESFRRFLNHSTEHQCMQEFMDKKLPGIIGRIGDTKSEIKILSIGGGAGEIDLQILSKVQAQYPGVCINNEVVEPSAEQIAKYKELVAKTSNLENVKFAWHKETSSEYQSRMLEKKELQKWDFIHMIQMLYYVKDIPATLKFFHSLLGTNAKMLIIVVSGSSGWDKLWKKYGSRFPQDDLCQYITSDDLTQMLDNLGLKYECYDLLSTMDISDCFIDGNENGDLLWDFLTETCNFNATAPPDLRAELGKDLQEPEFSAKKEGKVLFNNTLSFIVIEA
row,SMILES,IC50
1,Cc1ccc(Cn2c(=O)c3ccccc3n3c(CCC(=O)NCCCN4CCC(C)CC4)nnc23)cc1,"6.07 µM [falling, full curve]"
2,Cn1c(C(=O)NCCN2CCCCC2)cc2c1CCN(Cc1cccc(F)c1)C2,"19.2 µM [falling, partial curve]"
3,CN(C)CCNC(=O)c1ccnc(-c2nnc3ccc(N(C)c4ccccc4)nn23)c1,"31.2 µM [falling, partial curve]"
4,CCNc1nccc(N2CCC(CC(=O)N3CCN(c4ccccc4F)CC3)CC2)n1,"19.2 µM [falling, partial curve]"
5,Cc1cc(NC(=O)c2cccc(NC(=O)/C=C/CN(C)C)c2)ccc1Nc1nccc(-c2cccnc2)n1,"4.29 µM [falling, full curve]"
6,O=C(CCc1nnc2n(CCc3ccccc3)c(=O)c3ccccc3n12)N1CCC(N2CCCCC2)CC1,"3.41 µM [falling, full curve]"
7,Cc1noc2c(NC3CCN(C)CC3)cc(-c3cccs3)nc12,"17.5 µM [falling, partial curve]"
8,Cc1ccc(Cn2c(=O)c3ccccc3n3c(CCC(=O)NCCN4CCCC4)nnc23)cc1,"6.81 µM [falling, full curve]"
9,O=C(NCc1cccc(Cl)c1)c1cnc2c(c1)N(C(=O)Cc1ccc(O)cc1)CCC2,"11.1 µM [falling, partial curve]"
10,Cc1cc(Nc2ccc(NC(=O)c3ccc(Nc4ccnc5ccccc45)cc3)cc2)nc(N)n1,"0.341 µM [falling, full curve]"
11,O=C(CCCc1nnc2n3nc(-c4ccccc4)nc3c3ccccc3n12)N1CCC(N2CCCCC2)CC1,"9.61 µM [falling, partial curve]"
12,CCN(CC)CCCNC(=O)CCc1nnc2n(Cc3ccc(F)cc3)c(=O)c3ccccc3n12,"15.2 µM [falling, partial curve]"
13,COc1cc(N2CCC(N3CCN(C)CC3)CC2)ccc1Nc1ncc(Cl)c(-c2c[nH]c3ccccc23)n1,"13.6 µM [falling, partial curve]"
14,CCCN1CCn2c3c(c4cc(OC)ccc42)CCN=C31,"19.2 µM [falling, partial curve]"
15,COc1cc(C(=O)NC2CCN(C)CC2)ccc1Nc1ncc2c(n1)N(C1CCCC1)CC(F)(F)C(=O)N2C,"19.2 µM [falling, partial curve]"
16,CN1CCN(Cc2ccc(NC(=O)Cc3ccc(Oc4cc(NC(=O)C5CC5)ncn4)cc3)cc2C(F)(F)F)CC1,"19.2 µM [falling, partial curve]"
17,Cc1cc(-c2cc3c(cn2)N(C)CCN(C)C3)ccn1,"39.3 µM [falling, partial curve]"
18,Cc1noc(C)c1-c1cnc(Nc2ccncc2)c2c1CCO2,"31.2 µM [falling, partial curve]"
19,COC(=O)C1=C(C)NC(C)=C(C(=O)OC)C1c1cccc(NC(=O)NCCCN2CCC(c3cccc(OC)c3)CC2)c1,"21.5 µM [falling, partial curve]"
20,CC(=O)NC1CC2(CCN(Cc3ccc(O)cc3)CC2)c2ccccc21 (stereo not drawn),"23.9 µM [falling, partial curve, poor fit]"
21,COc1cccc(Nc2cc3c(cn2)CN(Cc2cccnc2)CCN3)c1,"7.84 µM [falling, partial curve]"
22,c1ccc(-c2cc3c(cn2)NCCN(CC2CC2)C3)cc1,"27.8 µM [falling, partial curve]"
23,CN(CCCNC(=O)CCc1nnc2n(Cc3ccccc3)c(=O)c3ccccc3n12)Cc1ccccc1,"19.2 µM [falling, partial curve]"
24,O=C(c1ccc(Cl)cc1)N1CC2(CCN(CC3CC3)CC2)Cc2ccccc21,"7.64 µM [falling, partial curve]"
25,COc1cc(/C=N\NC(=O)c2ccc3c(c2)OCO3)ccc1OCc1ccccc1,"1.21 µM [falling, full curve]"
26,O=C(CCc1nnc2n(Cc3ccc(F)cc3)c(=O)c3ccccc3n12)N1CCC(N2CCCCC2)CC1,"6.81 µM [falling, partial curve]"
27,COc1ccc(CN2CCCC(COc3ccccc3C(=O)NC3CC3)C2)c(OC)c1 (stereo not drawn),"21.5 µM [falling, partial curve]"
28,O=C(Nc1ccc2c(N3CCCCC3)ncnc2c1)c1ccccc1C(F)(F)F,"19.2 µM [falling, partial curve]"
